# Among all 270,000 compounds or so, about 620 (0.23%) were called active. This list was built around the results that the source calls inconclusive (neither active nor inactive); the mix of calls is not that of the screen. Calls come from the whole dose curve; as a rule, active = well fitted inhibition curve with a large enough effect in the polarisation, with a control signal flat (not every such curve was filed as active); inconclusive = small, poorly fitted or top-dose-only effect, or effect the other way, or a change in a side signal; inactive = no such curve, though single readings can be large or run the other way; the % refers to the polarisation. Where the call is inconclusive, the potency comes from a doubtful curve fit. A note “side channel” means that the fit belongs to a control or component signal, not to the main read-out.
# Target: Menin (Homo sapiens) (UniProt O00255)
# Test: qHTS Assay for Inhibitors Targeting the Menin-MLL Interaction in MLL Related Leukemias: Competition With Texas Red Labeled MLL-derived Mutant Peptide; for FP activity change, negative = inhibition: % of control where 0% means no effect
# Settings: fluorescence polarization; FP activity change, negative = inhibition: at 61.6 µM (top of the series)
# Potency is the fitted concentration of half-maximal effect; tags give direction and shape of the fitted curve or compound fluorescence and quenching.
# UniProt O00255, sequence (O00255 whole entry, looked up): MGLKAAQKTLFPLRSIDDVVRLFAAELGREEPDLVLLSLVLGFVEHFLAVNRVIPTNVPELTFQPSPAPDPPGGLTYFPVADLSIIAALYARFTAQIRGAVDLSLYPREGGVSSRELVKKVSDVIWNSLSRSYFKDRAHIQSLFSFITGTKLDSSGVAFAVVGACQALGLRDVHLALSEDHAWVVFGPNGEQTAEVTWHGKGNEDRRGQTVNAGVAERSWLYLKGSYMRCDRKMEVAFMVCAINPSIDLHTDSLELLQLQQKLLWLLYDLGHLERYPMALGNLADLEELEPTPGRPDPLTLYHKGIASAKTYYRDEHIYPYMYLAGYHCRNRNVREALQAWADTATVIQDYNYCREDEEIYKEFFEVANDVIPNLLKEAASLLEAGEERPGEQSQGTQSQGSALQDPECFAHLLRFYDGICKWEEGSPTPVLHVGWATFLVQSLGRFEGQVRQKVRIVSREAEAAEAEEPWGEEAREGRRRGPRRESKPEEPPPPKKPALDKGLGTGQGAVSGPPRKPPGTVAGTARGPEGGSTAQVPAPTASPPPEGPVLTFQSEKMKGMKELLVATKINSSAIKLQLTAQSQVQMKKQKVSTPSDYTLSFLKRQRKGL
SMILES,Potency,"FP activity change, negative = inhibition"
Nc1nc(SCC(=O)N2CCCc3ccccc32)[nH]c(=O)c1-c1ccccc1,"inconclusive: 39.8 µM [inhibitor, single point]",–
O=c1cc(C(F)(F)F)nc(-n2[nH]c3c(c2=O)CCCC3)[nH]1,"inconclusive: 2.82 µM [inhibitor, full curve]",–
CCC(=O)NCCC1CCc2ccc3c(c21)CCO3 (configuration not stated),–,inactive: 5.1%
CCC(=O)c1ccc(OCC(=O)O)c(OC)c1,"inconclusive: 28.2 µM [inhibitor, partial curve]",–
Cc1nn(C)cc1CN1CCCC(C(=O)c2ccc(-c3ccccc3)c(F)c2)C1 (configuration not stated),"inconclusive: 10 µM [fluorescent, side channel, full curve, poor fit]",–
Cc1nc(N2CCN(c3ccccn3)CC2)c2c(C)c(C(=O)Nc3ccccc3F)sc2n1,–,inactive: 9%
N#C/C(=C(/O)COC(=O)CCCNC(=O)c1ccc(Cl)cc1)c1nc2ccccc2[nH]1,–,inactive: 7.55%
CC(C)c1cc(NC(=O)C(C)(C)C)cc(C(C)C)c1O,–,inactive: 0.241%
Cc1cccc(CN2CCN(Cc3ccco3)CC2)c1,–,inactive: -0.0845%
CCOC(=O)c1c(-c2ccccc2)nc2c(C)cccn12,"inconclusive: 0.891 µM [inhibitor, full curve, poor fit]",–
OC(CNCCc1ccc(Cl)cc1Cl)COc1ccccc1 (configuration not stated),"inconclusive: 14.1 µM [fluorescent, side channel, partial curve]",–
COc1ccc(OC)c(NS(=O)(=O)c2c(C)nc3sccn3c2=O)c1,–,inactive: -10.4%
CCOc1ccc(C2c3cc(OC)c(OC)cc3CC(=O)N2c2ccc(OC)cc2)cc1 (configuration not stated),"inconclusive: 1.78 µM [inhibitor, full curve, poor fit]",–
COCCNC(=S)N/N=C(\C)CCc1ccc2c(c1)OCO2,–,inactive: -8.01%
Cc1cccc(C(=O)Nc2ccc(CC(=O)O)cc2)c1,"inconclusive: 5.01 µM [inhibitor, full curve, poor fit]",–
COC(C(=O)Nc1ccc(S(=O)(=O)Nc2ccc(F)cc2)cc1)c1ccccc1 (configuration not stated),"inconclusive: 20 µM [quencher, side channel, single point]",–
Nc1ccccc1C(=O)NCc1ccc(F)cc1,–,inactive: -10.1%
O=C(C1CC=CCC1)N1CCC(CO)(Cc2ccc(Cl)cc2)CC1 (configuration not stated),"inconclusive: 10 µM [inhibitor, partial curve]",–
O=C(NCCc1ccccc1)c1ccc2nc3cc(Cl)ccc3c(=O)n2c1,"inconclusive: 35.5 µM [fluorescent, side channel, single point]",–
Cc1cc(NC(=O)CCCC(=O)N(c2ccccc2)C(C(=O)NC2CCCCC2)c2cccs2)no1 (configuration not stated),–,inactive: -21.6%
CN1C(=O)CC(Nc2cccc3cccc(N)c23)C1=O (configuration not stated),"inconclusive: 31.6 µM [quencher, side channel, partial curve]",–

SMILES,Potency,"FP activity change, negative = inhibition"
CCOC(=O)c1sc2nc(-c3cccnc3)ccc2c1N,"inconclusive: 28.2 µM [quencher, side channel, partial curve]",–
O=C(Nc1cccnc1)c1ccc(S(=O)(=O)c2ccc(Cl)cc2)cc1,"inconclusive: 20 µM [quencher, side channel, partial curve]",–
Fc1ccccc1-c1csc(=Nc2cccnc2)n1CC1CCCO1 (configuration not stated),"inconclusive: 35.5 µM [inhibitor, partial curve, poor fit]",–
COc1ccc(-c2[nH]c(-c3ccc(C)cc3)nc2SCC(=O)Nc2nccs2)cc1,"inconclusive: 10 µM [quencher, partial curve]",–
CCN1C=C(C(=O)OC)C(c2cccc(C)c2)C(C(=O)OC)=C1,"inconclusive: 25.1 µM [fluorescent, side channel, single point]",–
O=S(=O)(CC(CN1CCCCC1)N1CCCCC1)c1ccc2ccccc2c1 (configuration not stated),"inconclusive: 8.91 µM [inhibitor, single point]",–
CCCCOc1ccc(-c2c(C#N)c(N)nc(SCC(N)=O)c2C#N)cc1,active: 12.6 µM,–
c1ccc(-c2n[nH]c3c2oc2ccccc23)cc1,"inconclusive: 39.8 µM [inhibitor, single point]",–
CCOC(=O)c1cccc(NC(=S)NCc2ccc(C)cc2)c1,"inconclusive: 31.6 µM [quencher, side channel, single point]",–
O=C(NCc1ccc2c(c1)OCO2)C12CN(Cc3ccccc3)CC1C(c1cccc([N+](=O)[O-])c1)=NO2 (configuration not stated),"inconclusive: 31.6 µM [quencher, side channel, single point]",–
CCN(CC)c1nc(Nc2ccc(Cl)cc2)nc(OCC#N)n1,"inconclusive: 17.8 µM [inhibitor, partial curve]",–
CN(C)c1ccc(/C=C(\Cl)c2nc3ccccc3s2)cc1,"inconclusive: 12.6 µM [quencher, side channel, partial curve]",–
Cc1cc2oc(=O)cc(CNc3ccccc3F)c2cc1O,"inconclusive: 39.8 µM [fluorescent, side channel, single point]",–
O=C(Nc1ccc2c(c1)OCCO2)C1CC(c2ccccc2Cl)=NO1 (configuration not stated),"inconclusive: 3.55 µM [inhibitor, partial curve]",–
CN(C)S(=O)(=O)c1cccc(C(=O)N2CCc3ccccc32)c1,"inconclusive: 3.98 µM [inhibitor, single point]",–
N#C/C(=C/c1ccc(Br)s1)C(=O)NCCc1c[nH]c2ccccc12,"inconclusive: 20 µM [quencher, side channel, single point]",–
Fc1ccccc1COc1ccc(Br)cc1CNCc1ccncc1,"inconclusive: 10 µM [fluorescent, side channel, partial curve]",–
CC(C)(C)Cc1nc2ccccc2n1CCc1ccccc1,"inconclusive: 28.2 µM [fluorescent, side channel, partial curve]",–
Cc1cc(/C=C(\C#N)C(=O)NCCc2c[nH]c3ccccc23)c(C)n1C,"inconclusive: 39.8 µM [quencher, side channel, single point]",–
CCCCCCCn1ccc(=N)cc1,–,inactive: -7.65%
COc1ccc(/C=C2/SC(=S)N(NS(=O)(=O)c3ccccc3)C2=O)cc1,"inconclusive: 20 µM [quencher, side channel, single point]",–

# Source: PubChem BioAssay AID1768 (National Center for Advancing Translational Sciences (NCATS), 2009)
